{"source": "PubChem BioAssay AID686970", "about": "(National Center for Advancing Translational Sciences (NCATS), 2013)", "note": "In all, about 360,000 compounds went through this assay and about 6,000 (1.7%) were called active. The shares of active, inactive and inconclusive entries below differ from those in the screen. Calls follow the shape of the dose curve; as a rule, active = well fitted cell-killing curve with a large enough effect; inconclusive = small, poorly fitted or top-dose-only effect, or effect the other way; inactive = flat fitted curve, though single readings scatter. No potency is given beside an inconclusive call; the fits are too rough. Potency is read from the fitted curve at half-maximal effect; tags tell the direction and shape of the fitted curve."}
{"assay": "qHTS for induction of synthetic lethality in tumor cells producing 2HG: qHTS for the HT-1080-NT fibrosarcoma cell line;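 also: NT is the 2HG producing partner of a matched IDH1 knockdown line; nearly all actives have a fitted effect of over 55% in size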;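 as to activity, negative = less viability: 0% = DMSO-treated cells and -100% = media-only wells without cells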", "conditions": "HT-1080-NT fibrosarcoma viability, CellTiter-Glo ATP luminescence, 48 h; activity, negative = less viability: at 46.1 µM (top of the series) unless noted", "procedure,_shortened": "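HT-1080-NT; 750 cells/well; 5% FBS RPMI; 48 h compound, 37 degrees C; CellTiter-Glo luminescence; curve fitting and curve-class assignment.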"}
{"smiles": "NC(=S)N/N=C/c1ncc(C(F)(F)F)cc1Cl", "Potency": "active: 10.3 µM"}
{"smiles": "OC(CCN1CCCCC1)(c1ccccc1)C1CCCCC1", "note": "(configuration not stated)", "Potency": "inconclusive [cytotoxic, partial curve]"}
{"smiles": "CC(=O)Nc1ccccc1OCCCN1CCC(C(O)(c2ccccc2)c2ccccc2)CC1", "Potency": "inconclusive [cytotoxic, single point]"}
{"smiles": "Cc1noc(C)c1COC(=O)Cc1ccc(Cl)c(Cl)c1", "activity, negative = less viability": "inactive: 20.3%"}
{"smiles": "O=S(=O)(Nc1ccc2c(c1)oc1ccccc12)N1CCCC1", "Potency": "inconclusive [cytotoxic, single point]"}
{"smiles": "CCC1(O)CC2CN(CCc3c([nH]c4ccccc34)C(C(=O)OC)(c3cc4c(cc3OC)N(C=O)C3C(O)(C(=O)OC)C(OC(C)=O)C5(CC)C=CCN6CCC43C65)C2)C1", "note": "(configuration not stated)", "Potency": "active: 0.0058 µM"}
{"smiles": "COc1ccc(-c2csc(NC(=S)NC(=O)c3ccc4ccccc4c3)n2)cc1OC", "activity, negative = less viability": "inactive: 14.6%"}
{"smiles": "O=C(CN1CCN(C/C=C/c2ccccc2)CC1)NCc1ccc(Cl)cc1", "Potency": "inconclusive [cytotoxic, single point]"}
{"smiles": "OC(CNCCc1ccc(Cl)cc1)COc1ccc2ccccc2c1", "note": "(configuration not stated)", "Potency": "inconclusive [cytotoxic, single point]"}
{"smiles": "Cc1cc(CN(C)C(=O)c2cc(COc3ccc4ncccc4c3)on2)on1", "activity, negative = less viability": "inactive: -22.6%"}
{"smiles": "O=C(COC(=O)CNC(=O)c1ccc(Cl)cc1Cl)NC(=O)NCc1ccccc1", "activity, negative = less viability": "inactive: 2.73%"}
{"smiles": "O=C(CSc1nc2[nH]ncc2c(=O)[nH]1)NCCc1ccccc1", "activity, negative = less viability": "inactive: 2.2%"}
{"smiles": "C=CCNC(=S)N1CCN(CCN=Cc2c(C)[nH]n(-c3ccc([N+](=O)[O-])cc3)c2=O)CC1", "activity, negative = less viability": "inconclusive: -34.8% [cytotoxic]"}
{"smiles": "O=C(c1ccc([N+](=O)[O-])o1)N1CCN(c2nc3c(F)cc(F)cc3s2)CC1", "activity, negative = less viability": "inactive: 8.54%"}
{"smiles": "CC(NC(=O)c1sc2ccccc2c1Cl)C1CCCO1", "note": "(configuration not stated)", "activity, negative = less viability": "inactive: 15.9%"}
{"smiles": "Fc1ccc2nc(Nc3nc4cc5c(cc4s3)OCO5)sc2c1", "Potency": "inconclusive [cytotoxic, single point]"}
{"smiles": "COc1ccc2c(c1)C(c1ccccc1)NC(=O)C2", "note": "(configuration not stated)", "activity, negative = less viability": "inactive: -0.62%"}
{"smiles": "CCC1=NN(C(=O)c2cccc([N+](=O)[O-])c2)C(O)(c2ccc(C)cc2)C1", "note": "(configuration not stated)", "Potency": "inconclusive [cytotoxic, single point]"}
{"smiles": "C[C@@H]1CN([C@H](C)CO)C(=O)CCCn2cc(nn2)CO[C@H]1CN(C)S(=O)(=O)c1ccc(Oc2ccccc2)cc1", "activity, negative = less viability": "inactive: 2.57%"}
{"smiles": "CCOc1ccc(S(=O)(=O)N(CC)CC(=O)NCc2cccnc2)cc1C", "activity, negative = less viability": "inactive: 19%"}
{"smiles": "S=C(NNc1nc(Nc2ccccc2)nc(N2CCCCC2)n1)NC1CCCCC1", "Potency": "inconclusive [cytotoxic, single point]"}
{"smiles": "Clc1ccc(-c2cc(C3CCNCC3)[nH]n2)cc1", "Potency": "inconclusive [cytotoxic, single point]"}
{"smiles": "C/C(=N\\NC(=O)c1nn(C)c(C)c1Br)c1cccc(NC(=O)c2ccc(F)cc2)c1", "activity, negative = less viability": "inactive: 0.839%"}
{"smiles": "O=C(NCc1ccco1)c1ccc(Br)s1", "activity, negative = less viability": "inactive: -1.86%"}
{"smiles": "CCOc1ccc(C(=O)Nc2ccc(NC(=O)c3ccco3)c(Cl)c2)cc1Br", "Potency": "inconclusive [cytotoxic, single point]"}
{"smiles": "CC(N)c1csc(Nc2ccc(C(=O)NCCCO)cn2)n1", "note": "(configuration not stated)", "Potency": "inconclusive [rising, single point]"}
{"smiles": "COc1ccc(C2C(C#N)=C(N)N(c3ccccc3)C3=C2C(=O)CCC3)cc1Cn1cc([N+](=O)[O-])cn1", "note": "(configuration not stated)", "Potency": "inconclusive [cytotoxic, partial curve]"}
{"smiles": "CCOC(=O)Nc1ccc2c(c1)Nc1ccccc1S2", "Potency": "inconclusive [cytotoxic, single point]"}
{"smiles": "Cc1ccsc1C(=O)C1CCCN(Cc2cc(F)ccc2-n2cccn2)C1", "note": "(configuration not stated)", "activity, negative = less viability": "inactive: -29.6%"}
{"smiles": "CCOC(=O)C1CCCN(c2cc(C)nc3cc(-c4ccc(F)cc4)nn23)C1", "note": "(configuration not stated)", "Potency": "inconclusive [cytotoxic, single point]"}
{"smiles": "S=C(NNc1ccnc2cc(Cl)ccc12)Nc1ccccc1Cl", "Potency": "inconclusive [cytotoxic, single point]"}
{"smiles": "CC1(C)OC(=O)C2=C(C[C@@H](CCc3ccccc3)O[C@@H]2c2ccc(Cl)cc2)O1", "Potency": "inconclusive [cytotoxic, single point]"}
{"smiles": "COc1ccc(NC(=O)c2cc(-c3ccc(C)o3)nc3ccccc23)cc1OC", "Potency": "inconclusive [cytotoxic, single point]"}
{"smiles": "Cc1cc(=O)n2[nH]cc(C(=O)O)c2n1", "activity, negative = less viability": "inactive: 0.186%"}
{"smiles": "COc1ccc(C(=O)OCC(=O)c2ccc3c(c2)NC(=O)CO3)cc1OC", "activity, negative = less viability": "inactive: 1.91%"}
{"smiles": "Cc1ccc(NC(=O)CSc2nc3ccccc3nc2N2CCOCC2)cc1", "Potency": "inconclusive [cytotoxic, single point]"}
{"smiles": "Cc1ccc(-c2cc(C(=O)N/N=C/C(Br)=C/c3ccccc3)n[nH]2)o1", "Potency": "active: 20.6 µM"}
{"smiles": "O=C(C1CC1)N1CCC(C(O)(c2ccccc2)c2ccccc2)CC1", "activity, negative = less viability": "inactive: 2.73%"}
{"smiles": "CC(=O)Nc1cccc(-c2ccnc3c2CC(C(=O)Nc2ccc(Cl)cc2)O3)c1", "note": "(configuration not stated)", "Potency": "inconclusive [cytotoxic, single point]"}
{"smiles": "CCN(CC)P(=O)(Nc1ccc(SC(F)F)cc1)c1ccc(N(C)C)cc1NC(=O)c1ccco1", "note": "(configuration not stated)", "Potency": "inconclusive [cytotoxic, single point]"}
{"smiles": "CCC1CCCCN1CCCNC(=O)c1ccc2c(c1)N(Cc1ccc(F)cc1)C(=O)c1ccccc1S2=O", "note": "(configuration not stated)", "Potency": "active: 20.6 µM"}
{"smiles": "CCN(CC)c1ccc(C=Nc2ccc(C)cc2C)c(O)c1", "activity, negative = less viability": "inactive: -12.4%"}
{"smiles": "O=C(Nc1cccs1)Nc1ccc(Br)cc1F", "Potency": "inconclusive [cytotoxic, single point]"}
{"smiles": "O=C1NC(c2cccc3ccccc23)Nc2ccc(Cl)cc21", "note": "(configuration not stated)", "Potency": "active: 0.58 µM"}
{"smiles": "Cc1nc(-c2ccccc2)sc1C(=O)NN", "Potency": "inconclusive [cytotoxic, single point]"}
{"smiles": "O=C(N/N=C/c1cc(Br)cs1)c1ccc2c(c1)OCCO2", "Potency": "active: 2.91 µM"}
{"smiles": "COc1ccccc1N(C)S(=O)(=O)c1ccc(C(=O)OCC(N)=O)cc1", "activity, negative = less viability": "inactive: -4.85%"}
{"smiles": "Cc1cc(C)c(C#N)c(SCC(=O)c2cc(C)n(CCc3ccccc3)c2C)n1", "activity, negative = less viability": "inactive: 0.269%"}
{"smiles": "CCCCCCN1C[C@H](n2cc(-c3ccc(F)cc3)nn2)[C@@H](O)C[C@@H]1c1ccc(Cl)cc1", "Potency": "inconclusive [cytotoxic, single point]"}
{"smiles": "Cc1ccc(OCc2cc(C(=O)N3CCC(Oc4cccnc4)CC3)no2)cc1C", "Potency": "inconclusive [cytotoxic, single point]"}
{"smiles": "Oc1ccc(Nc2nc(-c3ccccc3O)nc3ccccc23)cc1", "Potency": "inconclusive [cytotoxic, single point]"}
{"smiles": "CCc1nc2ccccc2c(C(=O)OCC(=O)Nc2cccc(S(=O)(=O)NC3=NCCCCC3)c2)c1C", "Potency": "inconclusive [cytotoxic, partial curve]"}
{"smiles": "Cc1n[nH]c(=S)n1/N=C/c1c(O)ccc2ccccc12", "activity, negative = less viability": "inactive: -18.4%"}
{"smiles": "CCOC(=O)c1sc(NC(=O)c2ccncc2)c(C#N)c1C", "Potency": "inconclusive [cytotoxic, single point]"}
{"smiles": "CN(C)CCOC(=O)COc1ccc(Cl)cc1", "Potency": "inconclusive [rising, single point]"}
{"smiles": "COc1ccc(NCC(=O)n2c(C)c(C)c3ccccc32)cc1", "Potency": "inconclusive [cytotoxic, single point]"}
{"smiles": "Cn1ncc2c(O/N=C(\\N)c3ccc(C(F)(F)F)cc3)ncnc21", "Potency": "active: 20.6 µM"}
{"smiles": "CC[C@]12c3[nH]c4cc(CCC(=O)N(C)C)ccc4c3CCN1C(=O)[C@@H](CC(=O)NC/C=C(\\C)CCC=C(C)C)C[C@@H]2C(=O)N1CCN(C(=O)c2ccco2)CC1", "Potency": "inconclusive [cytotoxic, partial curve]"}
{"smiles": "CC1CCN(C(=O)c2[nH]cnc2C(=O)N[C@H](C)c2ccccc2)CC1", "Potency": "inconclusive [rising, single point]"}
{"smiles": "O=C(NC(c1ccccc1)c1ccc2ccccc2n1)C1CCN(CCOc2ccc(Cl)cc2)CC1", "note": "(configuration not stated)", "Potency": "active: 3.66 µM"}
{"smiles": "NC(=O)CN1C(=O)NC(c2ccccc2)(c2ccccc2)C1=O", "Potency": "inconclusive [rising, partial curve]"}
{"smiles": "CNC(=S)NC1CC2CCCC(C1)N2Cc1ccco1", "note": "(configuration not stated)", "Potency": "inconclusive [rising, single point]"}
{"smiles": "Cc1cc2oc(C(=O)Nc3ccc(S(=O)(=O)Nc4onc(C)c4C)cc3)cc(=O)c2cc1Cl", "Potency": "inconclusive [rising, partial curve]"}
{"smiles": "Cc1c(C(=O)Oc2cccc3cccnc23)cccc1[N+](=O)[O-]", "Potency": "inconclusive [cytotoxic, single point]"}
{"smiles": "COc1ccccc1-n1cnc2cc(NCc3cccs3)ccc21", "Potency": "active: 3.66 µM"}
{"smiles": "Cc1n[nH]c(=O)c2c(NC(=O)CSc3ccc(F)cc3)oc(C)c12", "Potency": "inconclusive [cytotoxic, partial curve]"}
{"smiles": "O=C(CCCn1nnnc1CN1CCOCC1)N1CCC(c2ccc(F)cc2)C1", "note": "(configuration not stated)", "Potency": "inconclusive [cytotoxic, partial curve]"}
{"smiles": "C=CCOc1c(Cl)cc(C2NC(=O)NC(C)=C2C(=O)OC)cc1Cl", "note": "(configuration not stated)", "Potency": "inconclusive [cytotoxic, single point]"}
{"smiles": "Cn1c(-c2ccc3c(c2)OCO3)cnc1NCc1ccccc1Cl", "activity, negative = less viability": "inactive: -1.96%"}
{"smiles": "Cc1cc(/C=N\\NC(=O)c2cccs2)c(C)n1-c1ccc2ncccc2c1", "activity, negative = less viability": "inactive: -24.2%"}
{"smiles": "CC1=NN(C(=O)c2ccccc2Br)C(O)(c2ccc(Cl)cc2)C1", "note": "(configuration not stated)", "activity, negative = less viability": "inactive: -1.77%"}
{"smiles": "COC(=O)c1cnn(-c2ccccc2)c1/C=N/NC(=S)Nc1ccc(Cl)cc1", "Potency": "inconclusive [cytotoxic, full curve, poor fit]"}
